Measurements published in PubChem BioAssay (Tox21).
Where “and” joins values, the source holds several entries; their conditions need not be identical. Identical values can stand only once. The inconclusive results got no clear call from the source; some entries with a clear call stand among them for comparison. For some assays here: Potencies of inconclusive entries are doubtful fits and often do not repeat. Calls of active or inactive are those of the source. Unless noted, calls come from the whole dose curve; as a rule, active = well fitted curve in the direction sought with a large enough effect in the repeat runs; inconclusive = weak or mixed curves; inactive = no such curve, though single readings can be large; an effect the other way counts as inactive or inconclusive.

Tests used:
[1] = molecular target: Peroxisome proliferator-activated receptor gamma (Homo sapiens) (UniProt P37231); assay: qHTS assay to identify small molecule agonists of the peroxisome proliferator-activated receptor gamma (PPARg) signaling pathway (AID 743094; active = well fitted activation curve with a large enough effect in the signal ratio in the repeat runs, not every such curve was filed as active; inconclusive = weak or mixed curves, or effect the other way; inactive = no such curve, though single readings can be large or run the other way; the % refers to the signal ratio; note: potency is the fitted concentration of half-maximal effect; for activation: % is set by controls: 0 for no effect and ±100 for the full control effect); conditions: HEK293H PPARg-UAS-bla, beta-lactamase FRET ratio, 17 h; activation: at 57 µM (top of the series) unless noted
UniProt P37231, sequence (P37231 whole entry, looked up): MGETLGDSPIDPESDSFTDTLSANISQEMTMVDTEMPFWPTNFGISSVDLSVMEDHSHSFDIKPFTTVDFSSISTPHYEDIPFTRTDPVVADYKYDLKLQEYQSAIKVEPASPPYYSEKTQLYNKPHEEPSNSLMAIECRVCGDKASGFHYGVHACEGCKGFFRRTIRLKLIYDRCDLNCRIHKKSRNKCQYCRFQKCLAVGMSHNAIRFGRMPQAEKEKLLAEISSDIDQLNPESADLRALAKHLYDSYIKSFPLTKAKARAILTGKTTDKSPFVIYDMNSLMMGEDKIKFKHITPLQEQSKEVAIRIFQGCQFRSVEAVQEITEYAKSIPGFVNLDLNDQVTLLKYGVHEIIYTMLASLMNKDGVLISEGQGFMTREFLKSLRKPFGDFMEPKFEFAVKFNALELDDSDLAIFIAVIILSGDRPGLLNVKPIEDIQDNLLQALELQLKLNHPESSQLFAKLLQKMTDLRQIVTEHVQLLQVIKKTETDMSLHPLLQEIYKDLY
How it was run: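 Compounds dissolved in DMSO were added to PPARg UAS-bla HEK293H cells for 17 h at 37C, and reporter expression was quantified by fluorescence intensity after 1 h with LiveBLAzer B/G FRET substrate.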

[2] = molecular target: Peroxisome proliferator-activated receptor gamma (Homo sapiens) (UniProt P37231); assay: qHTS assay to identify small molecule antagonists of the peroxisome proliferator-activated receptor gamma (PPARg) signaling pathway (AID 743191; calls by dose curve; note: nearly all actives have a fitted effect of over 30% in size; note: potency is the fitted concentration of half-maximal effect); conditions: HEK293H PPARg-UAS-bla, beta-lactamase ratio, antagonist, 17 h; ratio activity, negative = inhibition: at 62.6 µM (top of the series) unless noted
How it was run: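 GeneBLAzer PPARg UAS-bla HEK293H cells carrying a UAS-driven beta-lactamase reporter were plated at 3000 cells/well, preincubated 5 h at 37C, then given compound for 17 h at 37C; LiveBLAzer B/G FRET substrate was read after 1 h at room temperature.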

[3] = qHTS assay to identify small molecule antagonists of the peroxisome proliferator-activated receptor gamma (PPARg) signaling pathway - cell viability counter screen (AID 743194); conditions: PPARg-bla HEK293H viability, CellTiter-Glo luminescence, 17 h, co-treated with 50 nM rosiglitazone; activity change, negative = cytotoxicity: at 62.6 µM (top of the series) unless noted; note: potency is the fitted concentration of half-maximal effect; nearly all actives have a fitted effect of over 55% in size
How it was run: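 PPARg-UAS-bla HEK293H cells were plated, rested 5 h at 37 C, then treated with compounds plus rosiglitazone (50 nM final) for 17 h at 37 C; viability was then read by CellTiter-Glo luminescence after 30 min at room temperature.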

[4] = qHTS assay for small molecule agonists of the antioxidant response element (ARE) signaling pathway (AID 743202; active = well fitted activation curve with a large enough effect in the signal ratio in the repeat runs, not every such curve was filed as active; inconclusive = weak or mixed curves, or effect the other way; inactive = no such curve, though single readings can be large or run the other way; the % refers to the signal ratio; note: potency is the fitted concentration of half-maximal effect); conditions: HepG2 ARE-bla reporter, beta-lactamase FRET, 16 h; activation: at 73.3 µM (top of the series) unless noted
How it was run: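 Read-out: LiveBLAzer B/G FRET substrate fluorescence after 2 h at room temperature, following 16 h compound treatment at 37 C of HepG2 cells carrying an ARE-driven beta-lactamase reporter.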

[5] = qHTS assay for small molecule agonists of the antioxidant response element (ARE) signaling pathway - cell viability counter screen (AID 743203; calls by dose curve; note: nearly all actives have a fitted effect of over 55% in size; note: potency is the fitted concentration of half-maximal effect); conditions: ARE-bla HepG2 viability, CellTiter-Glo luminescence, 16 h; viability change, negative = cytotoxic: at 73.3 µM (top of the series)
How it was run: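 Following 16 hrs of compound treatment at 37C, HepG2 cells with an ARE-controlled beta-lactamase gene were lysed with CellTiter-Glo. Luminescence was read after 30 min at room temperature.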

[6] = qHTS assay for small molecule activators of the heat shock response signaling pathway - cell viability counter screen (AID 743209); conditions: HSE-bla HeLa viability, CellTiter-Glo luminescence, 5 h; activity change, negative = cytotoxicity: at 62.6 µM (top of the series) unless noted; note: nearly all actives have a fitted effect of over 50% in size; note: potency is the fitted concentration of half-maximal effect
How it was run: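 Readout: CellTiter-Glo luminescence, 30 min at room temperature. System: HSE-bla HeLa cells, 1500/well, plated overnight. Treatment: compounds in DMSO, 5 h at 37 C.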

[7] = qHTS assay to identify small molecule agonists of the peroxisome proliferator-activated receptor delta (PPARd) signaling pathway - cell viability counter screen (AID 743211); conditions: PPARd-bla HEK293H viability, CellTiter-Glo luminescence, 17 h; activity change, negative = cytotoxicity: at 62.6 µM (top of the series); note: nearly all actives have a fitted effect of over 55% in size; note: potency is the fitted concentration of half-maximal effect
How it was run: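 Following 5 h plating at 37 C and 5% CO2, PPARd UAS-bla HEK293H cells took up test compounds for 17 h. Viability was quantified by luminescence 30 min after CellTiter-Glo addition at room temperature.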

[8] = molecular target: Peroxisome proliferator-activated receptor delta (Homo sapiens) (UniProt Q03181); assay: qHTS assay to identify small molecule agonists of the peroxisome proliferator-activated receptor delta (PPARd) signaling pathway (AID 743212; calls by dose curve; note: % is set by controls: 0 for no effect and ±100 for the full control effect); conditions: HEK293H PPARd-UAS-bla, beta-lactamase FRET ratio, 17 h; activation: at 62.6 µM (top of the series) unless noted
UniProt Q03181, sequence (Q03181 whole entry, looked up): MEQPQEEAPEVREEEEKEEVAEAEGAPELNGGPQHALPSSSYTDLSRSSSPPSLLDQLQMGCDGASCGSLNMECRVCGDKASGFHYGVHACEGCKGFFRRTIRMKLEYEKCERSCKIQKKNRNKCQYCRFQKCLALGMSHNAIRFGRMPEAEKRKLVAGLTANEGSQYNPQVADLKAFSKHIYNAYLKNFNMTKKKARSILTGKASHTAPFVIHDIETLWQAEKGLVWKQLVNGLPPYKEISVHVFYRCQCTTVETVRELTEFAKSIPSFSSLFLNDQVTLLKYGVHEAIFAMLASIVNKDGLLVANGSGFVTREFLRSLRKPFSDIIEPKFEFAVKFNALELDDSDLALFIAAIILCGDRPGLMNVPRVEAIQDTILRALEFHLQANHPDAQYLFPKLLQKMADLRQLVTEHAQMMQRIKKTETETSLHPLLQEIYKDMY
How it was run: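 GeneBLAzer PPARd UAS-bla HEK293H cells (beta-lactamase reporter under UAS control), plated and rested 5 h at 37 C, then exposed to compounds in DMSO at 37 C; LiveBLAzer B/G FRET substrate added, 2 h room temperature, fluorescence read.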

[9] = qHTS assay to identify small molecule agonists of the vitamin D receptor (VDR) signaling pathway - cell viability counter screen (AID 743224); conditions: VDR-bla HEK293T viability, CellTiter-Glo luminescence, 16 h; activity change, negative = cytotoxicity: at 62.6 µM (top of the series) unless noted; note: potency is the fitted concentration of half-maximal effect; nearly all actives have a fitted effect of over 50% in size
How it was run: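 Plated VDR-bla cells (4 h, 37C) received compound, incubated 16 h, then LiveBLAzer substrate 2 h RT; CellTiter-Glo added afterwards, luminescence read at 30 min.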

[10] = molecular target: Peroxisome proliferator-activated receptor delta (Homo sapiens) (UniProt Q03181); assay: qHTS assay to identify small molecule antagonists of the peroxisome proliferator-activated receptor delta (PPARd) signaling pathway (AID 743215; active = well fitted inhibition curve with a large enough effect in the signal ratio in the repeat runs, not every such curve was filed as active; inconclusive = weak or mixed curves, or effect the other way; inactive = no such curve, though single readings can be large or run the other way; the % refers to the signal ratio;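 note: cells stimulated with agonist L165041 at 300 nM final during compound exposure; % is set by controls: 0 for no effect and ±100 for the full control effect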); conditions: HEK293H PPARd-UAS-bla, beta-lactamase FRET ratio, antagonist, 17 h; ratio activity, negative = inhibition: at 62 µM (top of the series) unless noted
How it was run: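 HEK293H UAS-bla, PPARd; agonist L165041 300 nM final with cpd in DMSO; 37 C 17 h; FRET substrate, RT 2 h; fluorescence intensity.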

[11] = molecular target: Bile acid receptor (Homo sapiens) (UniProt Q96RI1); assay: qHTS assay to identify small molecule antagonists of the farnesoid-X-receptor (FXR) signaling pathway (AID 743217; active = well fitted inhibition curve with a large enough effect in the signal ratio in the repeat runs, not every such curve was filed as active; inconclusive = weak or mixed curves, or effect the other way; inactive = no such curve, though single readings can be large or run the other way; the % refers to the signal ratio; note: % is set by controls: 0 for no effect and ±100 for the full control effect); conditions: HEK293T FXR-UAS-bla, beta-lactamase ratio, CDCA-stimulated, 16 h; activity change, negative = inhibition: at 62.6 µM (top of the series) unless noted
UniProt Q96RI1, sequence (Q96RI1 whole entry, looked up): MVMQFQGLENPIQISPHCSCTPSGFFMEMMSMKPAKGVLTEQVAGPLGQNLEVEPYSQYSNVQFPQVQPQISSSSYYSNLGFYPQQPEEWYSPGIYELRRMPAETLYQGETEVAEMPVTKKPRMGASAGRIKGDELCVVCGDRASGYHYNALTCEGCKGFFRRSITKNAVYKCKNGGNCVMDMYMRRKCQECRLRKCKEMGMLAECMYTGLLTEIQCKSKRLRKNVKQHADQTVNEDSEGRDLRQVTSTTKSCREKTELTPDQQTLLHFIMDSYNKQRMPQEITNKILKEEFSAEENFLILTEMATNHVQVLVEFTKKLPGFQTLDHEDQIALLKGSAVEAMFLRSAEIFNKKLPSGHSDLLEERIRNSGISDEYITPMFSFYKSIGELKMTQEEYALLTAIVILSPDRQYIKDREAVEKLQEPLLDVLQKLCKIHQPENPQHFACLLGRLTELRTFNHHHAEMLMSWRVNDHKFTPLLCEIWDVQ
How it was run: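 GeneBLAzer FXR-UAS-bla HEK 293T, CDCA-stimulated (50 uM final). Compound treatment 16 h, 37 °C. Detection: beta-lactamase cleavage of B/G FRET substrate, fluorescence.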

[12] = qHTS assay to identify small molecule agonists of the farnesoid-X-receptor (FXR) signaling pathway - cell viability counter screen (AID 743218); conditions: FXR-bla HEK293T viability, CellTiter-Glo luminescence, 16 h; viability change, negative = cytotoxic: at 62.6 µM (top of the series) unless noted; note: potency is the fitted concentration of half-maximal effect; nearly all actives have a fitted effect of over 45% in size
How it was run: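 Parallel cytotoxicity test: compound-treated (16 h, 37 C) HEK 293T FXR-bla reporter cells were lysed with CellTiter-Glo and luminescence recorded.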

[13] = molecular target: Bile acid receptor (Homo sapiens) (UniProt Q96RI1); assay: qHTS assay to identify small molecule agonists of the farnesoid-X-receptor (FXR) signaling pathway (AID 743220; active = well fitted activation curve with a large enough effect in the signal ratio in the repeat runs, not every such curve was filed as active; inconclusive = weak or mixed curves, or effect the other way; the % refers to the signal ratio; note: potency is the fitted concentration of half-maximal effect); conditions: HEK293T FXR-UAS-bla, beta-lactamase FRET ratio, 16 h; activation: at 62.6 µM (top of the series) unless noted
How it was run: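 Beta-lactamase reporter under UAS control in GeneBLAzer FXR HEK 293T cells (5000/well) measured with LiveBLAzer FRET substrate after 2 h at room temperature. Compound exposure lasted 16 h at 37C.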

[14] = qHTS assay to identify small molecule antagonists of the farnesoid-X-receptor (FXR) signaling pathway - cell viability counter screen (AID 743221; active = well fitted cell-killing curve with a large enough effect in the repeat runs, not every such curve was filed as active; inconclusive = weak or mixed curves, or effect the other way; inactive = no such curve, though single readings can be large or run the other way; note: potency is the fitted concentration of half-maximal effect; nearly all actives have a fitted effect of over 50% in size); conditions: FXR-bla HEK293T viability, CellTiter-Glo luminescence, 16 h; activity change, negative = cytotoxicity: at 62.6 µM (top of the series)
How it was run: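 Compound effects on cell number were measured as CellTiter-Glo luminescence in HEK 293T cells expressing FXR-UAS-bla, after 16 h at 37 C with 50 uM CDCA (final).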
Tags give direction and shape of the fitted curve or compound fluorescence and quenching.

Structure (SMILES)	Potency [1]	ratio activity, negative = inhibition [2]	Potency [3]	Potency [4]	Potency [5]	activity change, negative = cytotoxicity [6]	Potency [7]	activation [8]	Potency [9]	Potency [2]	activation [4]	Potency [6]	Potency [10]	Potency [11]	Potency [12]	Potency [13]	Potency [14]
NC(N)=NC(N)=NCCc1ccccc1	inactive	inconclusive: 14.8%	inconclusive: 61.3 µM [cytotoxic, partial curve, poor fit]	active: 6.08 µM and inconclusive: 6.11 µM and active: 6.68 µM	inactive	inconclusive: 33.9%	inactive	inconclusive: 2.17%	inconclusive: 5.49 µM [cytotoxic, full curve]	–	–	–	–	–	–	–	–
CCCCCCCC/C=C\CCCCCCCC(=O)N(CCO)CCO	inconclusive: 24.5 µM	–	inconclusive: 54.7 µM [cytotoxic, single point]	–	inconclusive: 68.3 µM [cytotoxic]	–	active: 43.5 µM	inconclusive: -4.73%	active: 43.5 µM	inconclusive: 54.7 µM [inhibitor, single point]	inconclusive: 10.7%	inconclusive: 54.7 µM [cytotoxic, single point]	inactive	inactive	active: 54.7 µM	inconclusive: 19.4 µM [rising, partial curve, poor fit]	inconclusive: 61.4 µM [falling, partial curve, poor fit]
